Consider two molecules from patent US20240207407A1 (WALTER AND ELIZA HALL INSTITUTE OF MEDICAL RESEARCH, published 2024).

In the test the target is T1, Recombinant soluble EGFRvIII protein (extracellular domain, ACRO Biosystems Cat EGI-H52H4) (human, UniProt P00533 partial chain, labelled with ATTO 488 NHS ester in the bead assay; unlabelled in SPR).
T1 construct: Bought protein consisting of the extracellular domains, without the transmembrane or internal domains; also called recombinant EGFRvIII; EGFRvIII-ATTO488
In words: SPR (ProteOn XPR36), biotinylated scFv captured on streptavidin chip, soluble EGFRvIII ECD injected, 1:1 Langmuir kinetic fit. The method, then:
Recombinant EGFR Cat EGR-H5222 Lot: R102-616S1-A3 and EGFRvIII (protein Cat EGI-H52H4 Lot: 2144-65RS1-BG was obtained from Acrobiosystems and reconstituted to 1 ug/ul in PBS before dilution into PBS-T and injection over test and control surfaces at the concentrations indicated, (flow rate 30 μl/min). GFP protein was injected over chips to serve as negative control for non-specific scFv binding. A 10 mM glycine HCl buffer (pH 3) used to strip injected protein from chip between injections. Results from at least two independent injections were analyzed. After subtraction of data from control cells, interactions analyzed with ProteOn Manager software (version 2.1). KD values were derived from kinetic fit analysis using 1:1 Langmuir binding model.
Surface plasmon resonance (SPR) experiments were performed using a ProteOn XPR36 instrument (Bio-Rad) to determine the binding characteristics of GCT01 and GCT02 to EGFRvIII. Biotinylated GCT01, GCT02 and GFP scFv chains (200-400 RU) were captured onto separate streptavidin-coupled sensorchips. A separate flow cell containing immobilized streptavidin without coupled scFv served as control channel.
Both GCT01 and GCT02 scFv clones bound specifically to recombinant EGFRvIII protein over EGFR (wild type) recombinant protein as determined by Surface plasmon resonance (SPR). GFP protein was used as a negative control. […]

B1: GCT01 scFv (scFv)
scFv: QSVLTQPPSVSVSPGQTASITCSGDKLGDKYACWYQQKPGQSPVLVIYQDSKRPSGIPERFSGSNSGNTATLTISGTQAMDEADYYCQAWDSDGKATVVFGTGTKVTVSSQTGGSGGGGSGGGGSGGGGS[letters of about 100 residues left out]EQWEGDYFSAFDIWGQGTMVTVSS
modifications: biotinylated (AviTag fusion) in the bead, SPR and flow cytometry assays
notes: It was produced as a His6- and AviTag-fusion; also called clone 70
Turning to B1, the Kd came to 0.0457 nM.

B2: GCT02 scFv (scFv)
scFv: NFMLTQPHSVSESPGKTVTISCTRSSGSIASNYVQWYQQRPGSAPTTVIYEDNQRPSGVPDRFSGSIDSSSNSASLTISGLKTEDEADYYCQSYDLAADVRVVFGTGTKVTVSSQTGGSGGGGSGGGGSGGGGS[letters of about 100 residues left out]GGENTFESHPVAFDIWGQGTMVTVSS
modifications: biotinylated (AviTag fusion) in the bead, SPR and flow cytometry assays
notes: It was produced as a His6- and AviTag-fusion; also called clone 205
Regarding B2, the Kd was found to be 0.327 nM.

What is called Kd is the constant that tells how readily two partners part at equilibrium.
